Experimental data as given in patent US12421282B2, “Compositions and methods for the treatment of metabolic and liver disorders” (priority 2021, dated 2025).
Several values for one entry are separate records, joined by “and”; a condition that tells them apart may be missing. Equal entries are not always repeated. Where two headings read alike, the source gives them in different places. Not every detail of the peptide structures is certain; ends, links or a residue may be inferred. At least one compound was matched to its structure with a doubt left. Some compounds share one wording; it may come from a single statement. *1 amine or outer side, *2 acyl side, *3 side chain or, on linkers, in order; H or OH if unused. Where a SMILES comes first, the peptide text is derived from it. Side-chain parts run from the residue outwards. [ ]: non-standard residue; d: D form. The star is where a group is joined. Nonadecanoyl(19-PO3H2) = O=C(CCCCCCCCCCCCCCCCCCP(=O)(O)O)*; γGlu = O=C(O)[C@H](CCC(=O)[*:2])N[*:1]; AEEA = NCCOCCOCC(=O)O; Aib = CC(C)(N)C(=O)O

Experiments:
[1] = test system: NASH induced in mice by Gubra amylin NASH (GAN) diet; test: Biological effects in GAN diet-induced NASH mice; type: in vivo; conditions: 10 nmol/kg, after two weeks
[2] = target: human recombinant GLP-1 receptor (Homo sapiens, UniProt P43220); test: TagLite binding assay, GLP-1 receptor, without and with 2% HSA; conditions: for GLP-1 receptor Ratio of HSA/No HSA: IC50 with 2% HSA / IC50 with no HSA
Excerpt: (§1) Binding data for Compounds 15-25, for two human recombinant G protein coupled receptors, GLP-1 and GIP, was obtained using […]® binding assay and Epics Therapeutics cell lines. The binding assay was repeated in the presence of 2% human serum albumin (HSA). Compounds 16, 21, and 22 have an HSA ratio for the GLP-1 receptor of 7.1, 7.6, and 7.8, respectively. Compounds 15, 18, and 23 have an HSA ratio for the GIP receptor of 7.3, 4.3, and 6.4, respectively. A lower HSA ratio indicates greater binding affinity for the receptor than for albumin when compared to a compound with a greater HSA ratio.

[3] = target: T1, human recombinant GIP receptor (Homo sapiens, UniProt P48546); test: TagLite binding assay, GIP receptor, without and with 2% HSA; conditions: for GIP receptor Ratio of HSA/No HSA: IC50 with 2% HSA / IC50 with no HSA
T1 sequence (P48546 22-466): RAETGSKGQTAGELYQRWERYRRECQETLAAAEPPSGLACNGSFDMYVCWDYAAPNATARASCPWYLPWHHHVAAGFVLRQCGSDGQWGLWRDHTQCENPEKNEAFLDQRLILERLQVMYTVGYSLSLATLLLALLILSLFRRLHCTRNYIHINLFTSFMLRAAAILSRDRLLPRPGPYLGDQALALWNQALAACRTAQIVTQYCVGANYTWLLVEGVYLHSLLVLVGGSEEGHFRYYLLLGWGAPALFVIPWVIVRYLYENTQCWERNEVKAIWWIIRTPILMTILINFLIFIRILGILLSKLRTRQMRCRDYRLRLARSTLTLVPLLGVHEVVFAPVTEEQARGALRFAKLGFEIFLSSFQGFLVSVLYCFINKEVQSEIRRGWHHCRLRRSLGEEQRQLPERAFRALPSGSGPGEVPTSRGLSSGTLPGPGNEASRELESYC
Excerpt: as §1

[4] = 2% human serum albumin, read-out: GLP-1 receptor IC50 2% HSA
[5] = no HSA, read-out: GLP-1 receptor IC50 No HSA
[6] = 2% human serum albumin, read-out: GIP receptor IC50 2% HSA
[7] = no HSA, read-out: GIP receptor IC50 No HSA

Chain of human recombinant GLP-1 receptor (P43220 24-463): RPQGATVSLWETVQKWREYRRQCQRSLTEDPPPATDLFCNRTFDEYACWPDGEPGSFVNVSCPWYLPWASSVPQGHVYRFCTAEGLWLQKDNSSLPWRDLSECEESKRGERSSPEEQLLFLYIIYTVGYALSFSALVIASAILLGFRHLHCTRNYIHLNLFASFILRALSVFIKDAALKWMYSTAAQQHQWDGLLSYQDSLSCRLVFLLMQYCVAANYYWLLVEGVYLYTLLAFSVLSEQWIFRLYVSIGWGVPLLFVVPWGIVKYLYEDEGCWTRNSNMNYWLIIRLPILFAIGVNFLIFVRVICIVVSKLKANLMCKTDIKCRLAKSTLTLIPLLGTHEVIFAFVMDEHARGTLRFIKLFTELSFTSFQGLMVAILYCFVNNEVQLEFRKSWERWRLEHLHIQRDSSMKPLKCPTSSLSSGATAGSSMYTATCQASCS

Row | Compound | total liver Galectin-3 as compared to tirzepatide, histological quantitative assessment (FIG. 3) [1] | total liver lipids as compared to tirzepatide or vehicle (FIG. 2) [1] | IC50 [2, 4] [nM] | GLP-1 receptor Ratio of HSA/No HSA [2] | IC50 [2, 5] [nM] | IC50 [3, 6] [nM] | GIP receptor Ratio of HSA/No HSA [3] | IC50 [3, 7] [nM] | relative and total liver triglycerides as compared to tirzepatide (FIG. 1) [1]
1 | CC[C@H](C)[C@H](NC(=O)[C@H](CC(C)C)NC(=O)[C@H](Cc1c[nH]c2ccccc12)NC(=O)[C@H](CC(N)=O)NC(=O)[C@@H](NC(=O)[C@H](Cc1ccccc1)NC(=O)[C@H](C)NC(=O)[C@H](CCC(N)=O)NC(=O)[C@H](CCCCNC(=O)COCCOCCNC(=O)COCCOCCNC(=O)CC[C@H](NC(=O)CCCCCCCCCCCCCCCCCCP(=O)(O)O)C(=O)O)NC(=O)[C@H](C)NC(=O)[C@@H](NC(=O)[C@H](CCCCN)NC(=O)[C@H](CC(=O)O)NC(=O)[C@H](CC(C)C)NC(=O)C(C)(C)NC(=O)[C@@H](NC(=O)[C@H](CO)NC(=O)[C@H](Cc1ccc(O)cc1)NC(=O)[C@H](CC(=O)O)NC(=O)[C@H](CO)NC(=O)[C@@H](NC(=O)[C@H](Cc1ccccc1)NC(=O)[C@@H](NC(=O)CNC(=O)[C@H](CCC(=O)O)NC(=O)C(C)(C)NC(=O)[C@@H](N)Cc1ccc(O)cc1)[C@@H](C)O)[C@@H](C)O)[C@@H](C)CC)[C@@H](C)CC)C(C)C)C(=O)N[C@@H](C)C(=O)NCC(=O)NCC(=O)N1CCC[C@H]1C(=O)N[C@@H](CO)C(=O)N[C@@H](CO)C(=O)NCC(=O)N[C@@H](C)C(=O)N1CCC[C@H]1C(=O)N1CCC[C@H]1C(=O)N1CCC[C@H]1C(=O)N[C@@H](CO)C(N)=O [Compound 22] (H-Y[Aib]EGTFTSDYSI[Aib]LDKIAK([AEEA-AEEA-γGlu-Nonadecanoyl(19-PO3H2)])QAFVNWLIAGGPSSGAPPPS-NH2) | stastistically significantly lower total liver Galectin-3 than tirzepatide | stastistically significantly lower total liver lipids than tirzepatide | 5560 | 7.8 and 8.8 | 635 | 716 | 16.7 | 42.8 | 
2 | CC[C@H](C)[C@H](NC(=O)[C@H](CC(C)C)NC(=O)[C@H](Cc1c[nH]c2ccccc12)NC(=O)[C@H](CCC(N)=O)NC(=O)[C@@H](NC(=O)[C@H](Cc1ccccc1)NC(=O)[C@H](C)NC(=O)[C@H](CCCCNC(=O)COCCOCCNC(=O)COCCOCCNC(=O)CC[C@H](NC(=O)CCCCCCCCCCCCCCCCCCP(=O)(O)O)C(=O)O)NC(=O)[C@H](CCC(N)=O)NC(=O)[C@H](CO)NC(=O)[C@@H](NC(=O)[C@H](CCCCN)NC(=O)[C@H](CC(=O)O)NC(=O)[C@H](CC(C)C)NC(=O)C(C)(C)NC(=O)[C@@H](NC(=O)[C@H](CO)NC(=O)[C@H](Cc1ccc(O)cc1)NC(=O)[C@H](CC(=O)O)NC(=O)[C@H](CO)NC(=O)[C@@H](NC(=O)[C@H](Cc1ccccc1)NC(=O)[C@@H](NC(=O)CNC(=O)[C@H](CCC(=O)O)NC(=O)C(C)(C)NC(=O)[C@@H](N)Cc1ccc(O)cc1)[C@@H](C)O)[C@@H](C)O)[C@@H](C)CC)[C@@H](C)CC)C(C)C)C(=O)N[C@@H](C)C(=O)NCC(=O)NCC(=O)N1CCC[C@H]1C(=O)N[C@@H](CO)C(=O)N[C@@H](CO)C(=O)NCC(=O)N[C@@H](C)C(=O)N1CCC[C@H]1C(=O)N1CCC[C@H]1C(=O)N1CCC[C@H]1C(=O)N[C@@H](CO)C(N)=O [Compound 24] (H-Y[Aib]EGTFTSDYSI[Aib]LDKISQK([AEEA-AEEA-γGlu-Nonadecanoyl(19-PO3H2)])AFVQWLIAGGPSSGAPPPS-NH2) |  | stastistically significantly lower total liver lipids than tirzepatide |  | 10.0 |  |  | 9.8 |  | stastistically significantly better than tirzepatide
3 | CC[C@H](C)[C@H](NC(=O)[C@H](CC(C)C)NC(=O)[C@H](Cc1c[nH]c2ccccc12)NC(=O)[C@H](CCC(N)=O)NC(=O)[C@@H](NC(=O)[C@H](Cc1ccccc1)NC(=O)[C@H](C)NC(=O)[C@H](CCCCNC(=O)COCCOCCNC(=O)COCCOCCNC(=O)CC[C@H](NC(=O)CCCCCCCCCCCCCCCCCCP(=O)(O)O)C(=O)O)NC(=O)[C@H](CCC(N)=O)NC(=O)[C@H](C)NC(=O)[C@@H](NC(=O)[C@H](CCCNC(=N)N)NC(=O)[C@H](CC(=O)O)NC(=O)[C@H](CC(C)C)NC(=O)C(C)(C)NC(=O)[C@@H](NC(=O)[C@H](CO)NC(=O)[C@H](Cc1ccc(O)cc1)NC(=O)[C@H](CC(=O)O)NC(=O)[C@H](CO)NC(=O)[C@@H](NC(=O)[C@H](Cc1ccccc1)NC(=O)[C@@H](NC(=O)CNC(=O)[C@H](CCC(=O)O)NC(=O)C(C)(C)NC(=O)[C@@H](N)Cc1ccc(O)cc1)[C@@H](C)O)[C@@H](C)O)[C@@H](C)CC)[C@@H](C)CC)C(C)C)C(=O)N[C@@H](C)C(=O)NCC(=O)NCC(=O)N1CCC[C@H]1C(=O)N[C@@H](CO)C(=O)N[C@@H](CO)C(=O)NCC(=O)N[C@@H](C)C(=O)N1CCC[C@H]1C(=O)N1CCC[C@H]1C(=O)N1CCC[C@H]1C(=O)N[C@@H](CO)C(N)=O [Compound 16] (H-Y[Aib]EGTFTSDYSI[Aib]LDRIAQK([AEEA-AEEA-γGlu-Nonadecanoyl(19-PO3H2)])AFVQWLIAGGPSSGAPPPS-NH2) |  | stastistically significantly lower total liver lipids than tirzepatide | 1180 | 7.1 | 165 | 3330 | 9.2 | 363 | stastistically significantly better than tirzepatide
4 | CC[C@H](C)[C@H](NC(=O)[C@H](CC(C)C)NC(=O)[C@H](Cc1c[nH]c2ccccc12)NC(=O)[C@H](CCC(N)=O)NC(=O)[C@@H](NC(=O)[C@H](Cc1ccccc1)NC(=O)[C@H](C)NC(=O)[C@H](CCCCNC(=O)COCCOCCNC(=O)COCCOCCNC(=O)CC[C@H](NC(=O)CCCCCCCCCCCCCCCCCCP(=O)(O)O)C(=O)O)NC(=O)[C@H](CCC(N)=O)NC(=O)[C@H](C)NC(=O)[C@@H](NC(=O)[C@H](CCCCN)NC(=O)[C@H](CC(=O)O)NC(=O)[C@H](CC(C)C)NC(=O)[C@H](Cc1ccccc1)NC(=O)[C@@H](NC(=O)[C@H](CO)NC(=O)[C@H](Cc1ccc(O)cc1)NC(=O)[C@H](CC(=O)O)NC(=O)[C@H](CO)NC(=O)[C@@H](NC(=O)[C@H](Cc1ccccc1)NC(=O)[C@@H](NC(=O)CNC(=O)[C@H](CCC(=O)O)NC(=O)C(C)(C)NC(=O)[C@@H](N)Cc1ccc(O)cc1)[C@@H](C)O)[C@@H](C)O)[C@@H](C)CC)C(C)C)C(C)C)C(=O)N[C@@H](C)C(=O)NCC(=O)NCC(=O)N1CCC[C@H]1C(=O)N[C@@H](CO)C(=O)N[C@@H](CO)C(=O)NCC(=O)N[C@@H](C)C(=O)N1CCC[C@H]1C(=O)N1CCC[C@H]1C(=O)N1CCC[C@H]1C(=O)N[C@@H](CO)C(N)=O [Compound 19] (H-Y[Aib]EGTFTSDYSIFLDKVAQK([AEEA-AEEA-γGlu-Nonadecanoyl(19-PO3H2)])AFVQWLIAGGPSSGAPPPS-NH2) | stastistically significantly lower total liver Galectin-3 than tirzepatide |  |  | 8.8 |  |  | 8.1 |  | 
5 | CC[C@H](C)[C@H](NC(=O)[C@H](CCCCN)NC(=O)[C@H](CC(=O)O)NC(=O)[C@H](CC(C)C)NC(=O)C(C)(C)NC(=O)[C@@H](NC(=O)[C@H](CO)NC(=O)[C@H](Cc1ccc(O)cc1)NC(=O)[C@H](CC(=O)O)NC(=O)[C@H](CO)NC(=O)[C@@H](NC(=O)[C@H](Cc1ccccc1)NC(=O)[C@@H](NC(=O)CNC(=O)[C@H](CCC(=O)O)NC(=O)C(C)(C)NC(=O)[C@@H](N)Cc1ccc(O)cc1)[C@@H](C)O)[C@@H](C)O)[C@@H](C)CC)C(=O)N[C@@H](C)C(=O)N[C@@H](CCC(N)=O)C(=O)N[C@@H](CCCCNC(=O)COCCOCCNC(=O)COCCOCCNC(=O)CC[C@H](NC(=O)CCCCCCCCCCCCCCCCCCP(=O)(O)O)C(=O)O)C(=O)N[C@@H](C)C(=O)N[C@@H](Cc1ccccc1)C(=O)N[C@H](C(=O)N[C@@H](CCC(N)=O)C(=O)N[C@@H](Cc1c[nH]c2ccccc12)C(=O)N[C@@H](CC(C)C)C(=O)N[C@H](C(=O)N[C@@H](CCCNC(=N)N)C(=O)NCC(=O)NCC(=O)N1CCC[C@H]1C(=O)N[C@@H](CO)C(=O)N[C@@H](CO)C(=O)NCC(=O)N[C@@H](C)C(=O)N1CCC[C@H]1C(=O)N1CCC[C@H]1C(=O)N1CCC[C@H]1C(=O)N[C@@H](CO)C(N)=O)[C@@H](C)CC)C(C)C [Compound 20] (H-Y[Aib]EGTFTSDYSI[Aib]LDKIAQK([AEEA-AEEA-γGlu-Nonadecanoyl(19-PO3H2)])AFVQWLIRGGPSSGAPPPS-NH2) |  | stastistically significantly lower total liver lipids than tirzepatide |  | 9.1 |  |  | 9.0 |  | stastistically significantly better than tirzepatide
